Molecular target: signal transducer and activator of transcription 3 (STAT3) (human (endogenous in 293T)) (UniProt P40763)
Assay: cross-linking; 293T cells treated with 5, 10, 20 umol/L isoquercitrin or 0.1% DMSO for 24 h; nondenaturing lysate at 12 mg/mL; 5 mM DSS, 4 °C, 1 h; stopped with Tris pH 7.5; SDS-PAGE and Western blot for STAT3 dimers and monomers

- stoichiometry N: 2
Substance: signal transducer and activator of transcription 3 (STAT3) (a stretch of the chain, sequence not shown) (natural protein; other documents disagree on this pair)
